Results are given in words; binding and its absence hold for the method and conditions named. Binding seen in cells or lysates may run through a third protein. Some entries that bind do so weakly or less than the wild type.
Experiments:
[1] = molecular target: T1, DSBH domain of ALKBH5 alone (UniProt Q6P6C2); experiment: co-IP; HEK293T cells co-transfected with FLAG-DDX3 and HA-tagged constructs (cell line not named for the ALKBH5 deletion series); cells UV cross-linked, modified RIPA lysis buffer (150 mM NaCl, 50 mM Tris pH 8.0, 1% Nonidet P-40, 0.5% deoxycholate), sonicated; antibody on Dynabeads Protein G, 2 h at 4°C; Western blot; DDX3-ALKBH5 also with or without RNase A
T1 sequence: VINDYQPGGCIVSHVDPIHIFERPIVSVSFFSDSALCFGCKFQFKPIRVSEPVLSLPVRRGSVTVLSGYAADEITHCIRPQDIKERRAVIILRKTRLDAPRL

The chains behind the UniProt entries cited, without tags or fusion partners. Where a name states a change or a piece, a line headed by the entry shows the natural chain unless it says otherwise. A line that says so, or that is headed by a name, gives the form on record, which may keep a tag or linker.
UniProt O00571: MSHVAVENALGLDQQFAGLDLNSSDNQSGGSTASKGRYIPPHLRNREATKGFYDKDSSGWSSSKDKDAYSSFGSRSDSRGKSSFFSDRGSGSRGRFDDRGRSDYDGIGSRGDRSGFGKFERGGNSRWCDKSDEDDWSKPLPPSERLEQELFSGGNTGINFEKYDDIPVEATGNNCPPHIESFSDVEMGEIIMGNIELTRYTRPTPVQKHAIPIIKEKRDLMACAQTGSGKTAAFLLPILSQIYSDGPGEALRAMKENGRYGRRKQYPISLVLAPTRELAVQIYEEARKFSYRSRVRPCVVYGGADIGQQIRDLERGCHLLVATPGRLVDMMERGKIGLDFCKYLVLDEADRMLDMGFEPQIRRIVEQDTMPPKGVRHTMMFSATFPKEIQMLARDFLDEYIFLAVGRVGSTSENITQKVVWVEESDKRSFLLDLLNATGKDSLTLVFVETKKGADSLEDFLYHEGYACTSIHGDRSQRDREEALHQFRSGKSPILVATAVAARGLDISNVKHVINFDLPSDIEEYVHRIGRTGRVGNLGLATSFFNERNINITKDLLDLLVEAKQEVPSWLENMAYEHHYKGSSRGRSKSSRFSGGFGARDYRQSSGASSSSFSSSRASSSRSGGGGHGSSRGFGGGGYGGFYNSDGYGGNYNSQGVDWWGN
DDX3-ΔATP (O00571, form named): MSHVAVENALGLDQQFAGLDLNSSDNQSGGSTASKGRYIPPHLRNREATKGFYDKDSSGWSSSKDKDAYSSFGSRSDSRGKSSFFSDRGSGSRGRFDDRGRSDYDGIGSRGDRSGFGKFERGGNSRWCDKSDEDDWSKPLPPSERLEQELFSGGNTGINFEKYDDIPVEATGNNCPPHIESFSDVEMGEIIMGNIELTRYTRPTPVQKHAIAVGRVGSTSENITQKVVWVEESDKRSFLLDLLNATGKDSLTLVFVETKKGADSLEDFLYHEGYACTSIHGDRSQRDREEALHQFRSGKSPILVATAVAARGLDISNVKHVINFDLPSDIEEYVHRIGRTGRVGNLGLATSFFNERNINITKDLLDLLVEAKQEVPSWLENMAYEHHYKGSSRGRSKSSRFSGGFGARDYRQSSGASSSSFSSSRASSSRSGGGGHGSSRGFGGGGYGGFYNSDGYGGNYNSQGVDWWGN
UniProt Q9UKV8: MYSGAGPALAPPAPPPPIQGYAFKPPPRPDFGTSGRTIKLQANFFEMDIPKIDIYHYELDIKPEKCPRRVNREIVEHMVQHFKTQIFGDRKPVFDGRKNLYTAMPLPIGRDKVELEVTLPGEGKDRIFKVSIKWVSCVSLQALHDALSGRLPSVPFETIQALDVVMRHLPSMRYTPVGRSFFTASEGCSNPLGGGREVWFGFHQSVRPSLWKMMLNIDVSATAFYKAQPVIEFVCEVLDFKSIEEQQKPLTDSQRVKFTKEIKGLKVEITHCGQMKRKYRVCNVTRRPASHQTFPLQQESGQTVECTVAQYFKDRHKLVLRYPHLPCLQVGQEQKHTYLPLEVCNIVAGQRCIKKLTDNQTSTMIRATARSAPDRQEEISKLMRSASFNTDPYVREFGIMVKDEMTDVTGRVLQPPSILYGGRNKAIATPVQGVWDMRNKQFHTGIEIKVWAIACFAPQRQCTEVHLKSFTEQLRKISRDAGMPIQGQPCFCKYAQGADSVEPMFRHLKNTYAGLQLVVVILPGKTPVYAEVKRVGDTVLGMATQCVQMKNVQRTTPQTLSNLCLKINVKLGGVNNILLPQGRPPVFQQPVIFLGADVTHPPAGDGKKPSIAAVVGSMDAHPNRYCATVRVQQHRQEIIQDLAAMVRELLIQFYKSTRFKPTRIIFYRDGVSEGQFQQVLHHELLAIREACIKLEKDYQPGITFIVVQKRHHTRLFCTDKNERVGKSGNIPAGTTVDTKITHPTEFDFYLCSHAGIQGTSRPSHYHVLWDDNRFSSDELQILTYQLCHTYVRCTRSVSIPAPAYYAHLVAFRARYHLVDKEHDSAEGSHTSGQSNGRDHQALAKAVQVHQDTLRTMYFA

[2] = molecular target: HA-ALKBH5 (full-length ALKBH5) (UniProt Q6P6C2); experiment: as above
METTL14 = molecular target: T2, METTL14 (UniProt Q9HCE5); experiment: as above
T2 sequence: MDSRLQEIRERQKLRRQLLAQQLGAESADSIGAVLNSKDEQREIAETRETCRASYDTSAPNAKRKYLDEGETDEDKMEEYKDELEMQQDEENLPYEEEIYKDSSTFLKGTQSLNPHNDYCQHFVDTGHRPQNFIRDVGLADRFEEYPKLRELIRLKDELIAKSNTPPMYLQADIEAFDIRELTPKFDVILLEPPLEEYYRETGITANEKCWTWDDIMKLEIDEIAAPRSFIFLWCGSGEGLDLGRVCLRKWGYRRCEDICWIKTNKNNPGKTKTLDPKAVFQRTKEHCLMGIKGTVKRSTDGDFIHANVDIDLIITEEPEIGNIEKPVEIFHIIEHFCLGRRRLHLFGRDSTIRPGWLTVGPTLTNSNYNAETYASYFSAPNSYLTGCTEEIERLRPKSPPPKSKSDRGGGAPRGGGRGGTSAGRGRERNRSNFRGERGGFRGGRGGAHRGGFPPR

WTAP = molecular target: T3, WTAP (UniProt Q15007); experiment: as above
T3 sequence: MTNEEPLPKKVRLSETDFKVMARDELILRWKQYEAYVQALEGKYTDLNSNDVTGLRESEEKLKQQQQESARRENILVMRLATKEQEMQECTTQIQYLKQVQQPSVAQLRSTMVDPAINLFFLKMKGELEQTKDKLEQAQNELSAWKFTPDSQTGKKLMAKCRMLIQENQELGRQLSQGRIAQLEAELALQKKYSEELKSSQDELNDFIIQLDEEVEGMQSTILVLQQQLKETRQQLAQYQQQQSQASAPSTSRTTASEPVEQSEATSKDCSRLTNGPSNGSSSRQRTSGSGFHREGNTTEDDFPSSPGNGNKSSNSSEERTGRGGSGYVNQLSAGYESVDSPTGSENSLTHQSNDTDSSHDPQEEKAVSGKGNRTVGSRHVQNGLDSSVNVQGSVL

[3] = molecular target: endogenous DDX3 (human (endogenous in HEK293T)) (UniProt O00571); experiment: co-IP; endogenous proteins; IP with antibodies against DDX3 or AGO2 on Dynabeads Protein G, Western blot; HEK293T for DDX3-AGO2, cell line not stated for DDX3-ALKBH5
[4] = molecular target: endogenous AGO2 (human (endogenous in HEK293T)) (UniProt Q9UKV8); experiment: as above

## ATP-binding domain of DDX3 alone (from UniProt O00571 212-403) (domain or fragment)
[1]
  binding: binds

## DDX3-ΔATP (from UniProt O00571 1-662) (domain or fragment)
[2]
  binding: no binding

## FLAG-DDX3 (full-length DDX3) (from UniProt O00571 1-662)
[2]
  binding: binds
METTL14
  binding: no binding
WTAP
  binding: no binding

## endogenous AGO2 (from UniProt Q9UKV8 1-859)
[3]
  binding: binds

## endogenous DDX3 (from UniProt O00571 1-662)
[4]
  binding: binds

— paper PMC5733242
